Laboratory results taken from the supplement of paper PMC9513381.
Recombinant human monoclonal antibodies (heavy:light variable regions). ELISA EC50 on the named antigen, from 10 µg/ml down; IC50 / IC90 against spike pseudovirus on 293T-ACE2 cells, 48 h; lower = stronger. Calls: IC50 above 1,000 ng/ml = non-neutralizing; EC50 above 1,000 ng/ml = non-binder. The source prints 1000 for neutralization that was not reached; it is given as >1000 ng/ml. Only binders of the Wuhan-Hu-1 domain have neutralization values.

B1: B1025 (protein)
chain 1: QVQLQESGPGLMKPSETLSLTCTVSGGSVRSGNFHWNWIRQSPGKGLEWIGHMHYTGSPSYNPSLKSRVTILLDTSKNQFSLRLSSVTAADTAVYFCARDTRYYDRSGYVRSDGMDVWGQGTTVTVSS
chain 2: DIQMTQSPSTLSASVGDRVSMTCRASQTIGSWLAWYQQKPGNAPKLLIYEASSLQSGVPSRFSGSGSGTEFTLTISSLQPDDFASYYCQQYNSYPVTFGQGTKLEIK
B2: B1026 (protein)
chain 1: QMQLVQSGPEIKKPGTSVKVSCKASGFTFSNSAVQWVRQARGQRLEWIGWIVVGSGDPNYAQKFQERVTLTRDMSTSTAYMELSSLRSEDTAVYYCATNHCSRTICSDGFDIWGQGTVVTVSS
chain 2: EIVLTQSPVSLSLSPGERATLSCRASQTVRSSYFVWYQQKLGQAPRLLIYSASSRAAGIPDRFSGSGSGTDFTLTISRLEPEDFAVYYCQQYGSSPWTFGQGTKVEIK
B3: B1027 (protein)
chain 1: EVQLVESGGGLVQPGGSLRLSCVGSGFSFSRYWLHWVRQAPGKGLVWVSRIDSDGSSPVYADFVKGRFTMSRDNAKNTLYLQMNSLRAEDTAVYYCARASPGFGGLPFDYWGQGALVTVA
chain 2: SYELTQPPSVSVAPGMTARISCGVNNIGSESVHWYQQRPGQAPVLVLYYGSDRPSGIPERFSGSNSGNTATLTISRVEAGDEADYYCQLWDSSSSSDLWVFGGGTKLTVL
B4: B2098 (protein)
chain 1: EVQLLESGGALVQPGGSLRLSCAASGFTFSTYAMSWVRQAPGKGLEWVSGLTSSGGRPYYADSVKGRFTVSRDISKNTLYLQMNSLRVEDTAVYYCAKDRGSYSGYDFLSDSWGQGTLVTVSS
chain 2: DIVMTQSPDSLAVSLGERATINCKSSQSVLYTSNNKNYLAWFQQKPGQPPKLLIYWASTRESGVPDRFSGSGSGTDFTLTISSLQAEDVAAYYCQQYYNTPITFGQGTRLEIK
B5: B1028 (protein)
chain 1: EVQLVESGGGLLQPGRSLTLSCAASGFTFDDYAMHWVRQAPGKGLEWVSGISWSGGVIDYADSVRGRFTISRDNAKESLYLHMRSLRPEDTALYYCARGSRSGSFSLRDHDYGMDVWGRGTTVTVSS
chain 2: DIVMTQSPLSLPVTPGGPASISCRSSQSLLHSNGYNYLDWYLQKPGQSPQLLISLGSNRASGVPDRFSGSGSGTDFTLKISRVEAEDVEVYYCMQGLQPPPTFGQGTKLEIK
B6: B1030 (protein)
chain 1: QVQLVQSGAEVKKPGASVRVSCKASGYTFTSYYMHWVRQAPGQGLEWMGIINPSDGGASYAQKFQGRVTMTSDTSTSTVYMELSSLRSEDTAVYYCARALRHHSSGWYSALDFQHWGQGTLVTVSS
chain 2: not shown
B7: B1032 (protein)
chain 1: EVQLVESGGGLVQPGRSLRLSCEASGFTFEDFAMHWVRQAPGKGLEWVSGVSWNSGTIGYGDSVKGRFIIIRDNAKNSVYLQMNSLRPEDTAFYYCVKDMATYYKDISGTYGMDVWGQGTTVTVSS
chain 2: SYELTQTPSVSVAPGQTARITCVGNNIGSESVHWYQQKSGRAPVLVVYDDSDRPSGIPERFSGSTSGTTATLIINRVEAGDEAGYYCQVWDASSDHVVFGGGTKLTVL
B8: B1033 (protein)
chain 1: EVQLVESGGGLVQPGRSLRLSCAASGFTFDDYALHWVRQAPGKGLEWVSGSSWNSATIGYADSVKGRFIISRDNAKNSLYLHMSSLRVEDTALYYCAKDSSGGDWPLCFDYWGQGILVTVSS
chain 2: EIVMTQSPATLSVSPGERATLSCRASQSVSSNLAWYQQKPGQAPRLLIYGASTRATGIPARFSGSGSGAEFTLTISSLQSEDFAVYYCQQYNNWRYTFGQGTKLEIK
B9: B1034 (protein)
chain 1: QVQLVQSGSEVKKPGASVKVSCKASGNTFITYYTHWVRQAPGQGLEWMGVIKPSDGYTNYAQKFQGRVTMTRDTSASTVYMELSSLTSDDTAVYYCARDSSIAARVVDWGQGTLVTVSS
chain 2: DIQMTQSPSSLSASVGDRVTITCQASQDIYNYLNWYQQKPGKAPKLLIFDAINLETGVPSRFSGSGSGTDFTLTISSLQPEDIATYYCQQHDNLPYSFGQGTKLEIK
B10: B1035 (protein)
chain 1: QVQLVESGGGLVKPGGSLRLSCAASGFIFSNYYISWIRQSPGKGLEWLSYISGSGSTIYYADSVKGRFTISRDNAKNSLYLEMNSLRPEDTAVYYCARDGSLTGYIDYWGQGTLVTVSS
chain 2: SYELTQPPSVSVAPGQTARITCGGDDIGSKGVHWYQQKPGQAPVLVVYDDSDRPSGIPERFSGSNSGNTATLTISRVEVGDEADYYCQVWDSHANPHWVFGGGTKVTVL
B11: B1038 (protein)
chain 1: QVQLVQSGAEVKKPGASVKVSCKASGYTFTNYYMHWVRQAPGQGLEWLGMIKASGGTTHYAEKFQGRVTMTRDTSTNTVYVELSSLRSEDTAVYYCARDRLMGYYELWTAYGGMDVWGQGTTVTVSS
chain 2: SYVLTQPPSVSVAPGKTASVTCGGNDIGIKTVRWYQQKPGQAPVLVIYSDSDRPSGIPERFSGSNSGNTASLTINRVEAGDEADYYCQVWDSSSAWVFGGGTKLTV
B12: B1039 (protein)
chain 1: QVQLVESGGGVVQPGRSLRLSCTVSGFTFRHYGMHWVRQAPGKGLEWVAVILYDGSDKQYADSVKGRFTIARDNSKNTLYLQMNSLRAEDTAVYYCVKRRGSYCGGDCYSGEFDYWGQGTLVTVSS
chain 2: DIQMTQSPSSLSASVGDRVTITCQASQDISTYLNWFQQKPGKAPNLLISDASNLETGVPSRFSGSGSGTDFTFTISSLQPEDVATYYCQQYHNLPTFAGGTKVELK
B13: B1040 (protein)
chain 1: EVQLVESGGGLVQPGRSLRLSCAASGFTFDDYAMHWVRQAPGKGLEWVSGISWNSGTIGYADSVKGRFIISRDNAKNSLYLQMYSLRAEDTALYYCAKDVYMGKINLYGHEDYGMDVWGQGTTVTVS
chain 2: QSVLTQPPSVSGAPGQRVTISCTGSSSNVGASYDVHWYQQLPGTAPKLLIYGKDNRPSGVPDRFSGSKSGTSASLAITGLQAEDEADYYCQSFDSSLSGVLFGGGTKLTVL
B14: B1041 (protein)
chain 1: QVQLVQSGAEVKKPGSSVKVSCKASGGTFSSYTVTWVRQAPGQGLEWMGGIIAALGAANYAQKFQGRVTFTADDSRSTVYMELSSLTYEDTAVYYCATSRGYSGYGANNWFDPWGQGSLVTVSS
chain 2: QSVLTQPPSVSGAPGQRVTISCTGSNSNIGAGYDVHWYQQLPGTAPRLLIHVNSNRPSGVPERFSGFKSGTSASLAITGLQAEDEAIYYCQSYDSSLTGSLFGGGTKLTVL

Target: SARS-CoV-2 Wuhan-Hu-1 spike pseudovirus
Test: pseudovirus neutralization IC50; higher = weaker neutralization
Method: (§1)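 Single-round luciferase reporter pseudovirus mixed with antibody dilutions and put on 293T-ACE2 cells for 48 h; signal relative to no-antibody wells, four-parameter fit.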

Binder | pseudovirus neutralization IC50 [µg/mL]
B1 | 0.0197
B2 | 0.00257
B3 | 0.173
B4 | 0.00316
B5 | 0.00887
B6 | 0.00118
B7 | 0.0145
B8 | 0.00932
B9 | 0.00435
B10 | > 1
B11 | 0.68
B12 | > 1
B13 | 0.00487
B14 | 0.0852

Target: SARS-CoV-2 Wuhan-Hu-1 spike pseudovirus
Test: pseudovirus neutralization IC90; higher = weaker neutralization
Method: as §1

Binder | pseudovirus neutralization IC90 [µg/mL]
B1 | 0.115
B2 | 0.0165
B3 | > 1
B4 | 0.0265
B5 | 0.109
B6 | 0.0136
B7 | 0.138
B8 | 0.616
B9 | 0.0422
B10 | > 1
B11 | > 1
B12 | > 1
B13 | 0.796
B14 | > 1

Target: SARS-CoV-2 Delta (B.1.617.2) spike RBD
Test: ELISA binding EC50; higher = weaker binding; ELISA of recombinant human antibody on coated antigen, from 10 µg/ml in fourfold dilutions; four-parameter fit.

Binder | ELISA binding EC50 [µg/mL]
B1 | 0.0107
B2 | 0.274
B3 | 0.00888
B4 | 0.00896
B5 | > 1
B6 | 0.0585
B7 | 0.011
B8 | 0.317
B9 | 0.304
B10 | 0.00796
B11 | 0.0214
B12 | 0.00551
B13 | 0.0763
B14 | 0.0158

Target: SARS-CoV-2 Omicron BA.1 spike protein
Test: as above

Binder | ELISA binding EC50 [µg/mL]
B1 | 0.00791
B2 | 0.0216
B3 | 0.0169
B4 | 0.0559
B5 | 0.00956
B6 | 0.0152
B7 | 0.00583
B8 | 0.0124
B9 | 0.00281
B10 | 0.0107
B11 | 0.0152
B12 | 0.00211
B13 | 0.00973
B14 | 0.0034

Target: SARS-CoV-2 Wuhan-Hu-1 spike receptor-binding domain
Test: as above

Binder | ELISA binding EC50 [µg/mL]
B1 | 0.00386
B2 | 0.00265
B3 | 0.00557
B4 | 0.00527
B5 | 0.00287
B6 | 0.00241
B7 | 0.00269
B8 | 0.00297
B9 | 0.00405
B10 | 0.00455
B11 | 0.00219
B12 | 0.00324
B13 | 0.00208
B14 | 0.00344
